Among the data in the antibiotic and cytotoxicity screens of Wong et al. (2023) are growth inhibition call values, retold here.

The list shows a part of the results.

This test concerns S. aureus RN4220. The test is described as follows: growth inhibition call (relative growth <= 0.2). The note with it: 50 µM.
As to `C[C@H](O)C#Cc1ccc2c(c1)O[C@@H](CN(C)C(=O)c1ccccc1)[C@@H](C)CN([C@@H](C)CO)S2(=O)=O`, the growth inhibition call was “inactive”.
Then `O=C(C[C@@H]1CC[C@@H]2[C@H](COC[C@@H](O)CN2C(=O)c2ccccc2F)O1)N1CCN(c2ccccc2)CC1`, with “inactive”.
Then `C[C@H](CO)N1C[C@H](C)[C@H](CN(C)C(=O)Nc2ccc(C(F)(F)F)cc2)OCCCC[C@H](C)Oc2ccc(NC(=O)C3CCCCC3)cc2C1=O`, with “inactive”; and `C[C@@H]1CN([C@@H](C)CO)C(=O)c2cc(C#CCN(C)C)cnc2O[C@H]1CN(C)C(=O)CN1CCOCC1`, with “inactive”; and `CCS(=O)(=O)Nc1ccc2c(c1)C(=O)N(C)C[C@H](OC)[C@H](C)CN(Cc1ccccn1)[C@H](C)CO2`, with “inactive”.
As for `C[C@@H](C(=O)N(C)C[C@@H]1OCc2ccccc2-c2c(n(C)c3ccccc23)C(=O)N([C@@H](C)CO)C[C@@H]1C)c1ccccc1`, the growth inhibition call is “inactive”.
Regarding `C[C@H]1CCCCO[C@H](CN(C)Cc2ccc3c(c2)OCO3)[C@@H](C)CN([C@@H](C)CO)C(=O)c2cc(NC(=O)c3ccccc3)ccc2O1`, the growth inhibition call was “inactive”.
As for `CC(C)CC#Cc1ccc2c(c1)O[C@H](CN(C)C(=O)c1cccnc1)[C@@H](C)CN([C@H](C)CO)S2(=O)=O`, the growth inhibition call was “inactive”.
Consider `O=C1NN=COc2ccccc21`, for which the growth inhibition call is “inactive”.
Then `COc1ccc(S(=O)(=O)N(C)C[C@@H]2OCCCC[C@H](C)Oc3ccc(NS(C)(=O)=O)cc3C(=O)N([C@@H](C)CO)C[C@H]2C)cc1`, with “inactive”; and `COc1cccc(S(=O)(=O)N2C[C@H](O)COC[C@H]3O[C@H](CC(=O)N4CCOCC4)CC[C@@H]32)c1`, with “inactive”.
`O=C(NCO)c1cccnc1`: the growth inhibition call is “inactive”.
The entry for `C[C@H](CO)N1C[C@H](C)[C@H](CN(C)C(=O)Nc2ccc(C(C)(C)C)cc2)OCc2cn(nn2)CCCC1=O` is “inactive”; for `COc1ccccc1-c1ccc2c(c1)O[C@H](CN(C)C(=O)c1ccncc1)[C@@H](C)CN([C@H](C)CO)S2(=O)=O` it is “inactive”.
As for `O=C(C[C@@H]1C=C[C@H](NS(=O)(=O)c2ccccc2)[C@@H](CO)O1)NCc1ccncn1`, the growth inhibition call was “inactive”.
Consider `C[C@H](NC(=O)N(C)C[C@H]1OCc2ccccc2-c2ccccc2C(=O)N([C@@H](C)CO)C[C@@H]1C)c1ccccc1`, for which the growth inhibition call is “inactive”.
